This is an account of results in the RNAGym collection of RNA variant scans (doi:10.7554/elife.90254).

B1: LINE1-full (parent)
chain: UACGUAGGUGGUUUUCCCCUGAUAGUGCUAAGGGGGCCUGGAAGUUUGGACUGGGCAGAGCUCAACACAGCGUGGCAAAGUGGCUGUGGCUAGACUGCCUCUCUGGAUUCCUCGUCACUCAGCAGGGCAUCUCUGAGAGAAAUGCC

Read counts are not given, so values of variants with three or more changes are uncertain.

The variants in this data set derive from B1. As to the kind of experiment: self-cleavage, relative activity (ratio to wild type); higher = more cleavage; in vitro, sequencing; the parent is a self-cleaving ribozyme.
As for U46C A57U A67U U108C, the self-cleavage was determined as 0.

Regarding U46C U96C U143C, the self-cleavage was 0.11.

As for U46C G86A U87G U96A A136G, the self-cleavage is 0.09.

With G44A U115C A124U, the self-cleavage came out at 1.67.

Take U45C U81A A141G: the self-cleavage turned out to be 1.6.

Turning to U46C A79C U81C, the self-cleavage amounted to 1.67.

Take U46A G72A U73A G139A: the self-cleavage was found to be 1.99.

Turning to U46C G70U A79G U100C A129G, the self-cleavage turned out to be 0.09.

Turning to G44U U47C U62C A78G A136G, the self-cleavage amounted to 0.25.

On to U46A U47C U102C U134C, for which the self-cleavage was 0.63.

Regarding U46C U62C U130C U132C, the self-cleavage was determined as 0.

Regarding G44A U85C A141G U143C, the self-cleavage was 0.1.

Regarding U45G A59U A77U, the self-cleavage stood at 0.82.

As for U46C U73C U115A A124G, the self-cleavage is 2.3.

With U45C A64C U115A, the self-cleavage is 0.33.

U45G U52G U100C: the self-cleavage was found to be 1.93.

Turning to U47A G70A U130C, the self-cleavage is 0.16.

In the case of U45G A77U U85G U112C, the self-cleavage was found to be 0.06.

Regarding U46C A79G U91C, the self-cleavage was found to be 0.5.

U45C G58A U143G: the self-cleavage was determined as 0.06.

Take U46C U85A U115A C133U A142G: the self-cleavage is 0.22.

On to G44A U87C U143C, for which the self-cleavage turned out to be 0.26.

U45C A64U U85C U87C U91A A92G: the self-cleavage was 0.

Turning to U47A A94G A142C, the self-cleavage is 0.08.

As for U46A A79U U85C U108C, the self-cleavage was found to be 0.12.

Regarding U47A A64G C76U U115C A124G, the self-cleavage was found to be 0.2.

With U45A U134C A140G, the self-cleavage turned out to be 1.31.

Turning to U46C A92G G93A U119C G144A, the self-cleavage came to 0.08.

With U45C A64G A92U A142G, the self-cleavage came out at 0.85.

For the variant U46C A78G U130A G137U, the self-cleavage was found to be 1.53.

In the case of U46C A57U C120U, the self-cleavage came to 0.22.

Take U45C U52A U62A U115A: the self-cleavage was determined as 0.

For U46A U108A U115C U143A, the self-cleavage is 1.21.

For the variant U45C A59G A107U U132C, the self-cleavage came out at 0.

In the case of U45C U46C A57G A78G G114A U130C, the self-cleavage turned out to be 0.

U46C G88U U143C: the self-cleavage is 0.02.

For the variant U45C A79G U109A C116A U134A, the self-cleavage is 0.43.

Turning to U45C A50G U130C, the self-cleavage was 1.02.

For U45C U130C A138G, the self-cleavage came out at 0.8.

Consider U46C U87A U108C, for which the self-cleavage was found to be 0.12.

In the case of U45C A59G G127A, the self-cleavage was 0.04.

U46A G49U A142G: the self-cleavage is 1.14.

Take U46C A59G C61U U96A: the self-cleavage was 0.04.

For the variant U45C A121U A138U A142G, the self-cleavage was 1.07.

Regarding U46C A57U U132C, the self-cleavage is 0.2.

In the case of U45C A136G A141G, the self-cleavage stood at 0.81.

Turning to U47A A59G U115A G144A, the self-cleavage was found to be 0.07.

On to G44U U46C A94G C123U, for which the self-cleavage came out at 0.33.

As for U47A G58U C63U A140G, the self-cleavage was found to be 0.05.

On to U45C U112C A141U, for which the self-cleavage was found to be 1.41.

As to U45C U87C C145U, the self-cleavage amounted to 0.27.

For U46A U91A U112A, the self-cleavage came out at 0.42.

U46C A107C A121U: the self-cleavage was found to be 2.21.

For U45G A78G U100A A107G C133A A141G, the self-cleavage is 1.02.

Regarding U45C U52A A140U, the self-cleavage came out at 1.67.

With U46C A64G A107U, the self-cleavage is 0.34.

Consider U45C U73A U85C, for which the self-cleavage was 0.17.

With U45C A67G A140G, the self-cleavage is 0.28.

As to U46C U91C A124G U132C, the self-cleavage was determined as 0.

With U45C C99U U119A A136G, the self-cleavage worked out at 0.24.

Consider U45C U47A A64U, for which the self-cleavage was found to be 0.34.

For the variant U45C A57G U130C, the self-cleavage stood at 1.1.

For U45C C131U A140C, the self-cleavage is 1.68.

In the case of U46A U96C A136G, the self-cleavage came out at 0.07.

As for U45C C56U U100G A129G, the self-cleavage is 0.05.

Regarding U46A U85A U96C A107G, the self-cleavage amounted to 0.12.

For U46C G49A G88A A121G, the self-cleavage was found to be 0.04.

For U47A U108C A117G, the self-cleavage is 0.48.

Turning to U46C C66U A94G, the self-cleavage worked out at 0.03.

In the case of U46C A121G A141G, the self-cleavage was determined as 2.22.

As to U45A U52C G72U A140G, the self-cleavage stood at 0.

Regarding U46C A79G U81C, the self-cleavage was 0.64.

Consider U46C A107U A138G, for which the self-cleavage is 1.11.

U46C A64G C71U U87G U115C A136G U143C: the self-cleavage worked out at 0.11.

Take U45C U62C A140G: the self-cleavage came out at 0.05.

For U46C A78G U109C, the self-cleavage is 1.7.

With U47A A57G A77U, the self-cleavage was 0.57.

Consider U47A U62A A117G, for which the self-cleavage came out at 0.05.

Consider U47A C68A U85C U132C, for which the self-cleavage was 0.04.

As to U46A C123A U143A, the self-cleavage amounted to 1.3.

As for U45C A94G U112A, the self-cleavage stood at 1.84.

Turning to U47A A69U U104A, the self-cleavage is 0.02.

For U47A A69U U104C, the self-cleavage was found to be 0.09.

With U45A A92G A138G, the self-cleavage came out at 0.05.

With U45C C68U G72A, the self-cleavage came out at 0.06.

With U47A A69C A136G, the self-cleavage came to 0.06.

U45A A50C U52A A121G: the self-cleavage worked out at 0.

For U46C A67G G89A, the self-cleavage worked out at 0.07.

As for U46C A67G U85A U119A, the self-cleavage was 0.

Take U46C U52A U104C: the self-cleavage worked out at 1.61.

For the variant U46A A65G A121U A140G, the self-cleavage is 0.04.

In the case of U46C A64G A124U, the self-cleavage stood at 0.36.

Take U46C A117C A138U A142G: the self-cleavage worked out at 2.9.

In the case of U46A A129G U143C, the self-cleavage turned out to be 1.91.

Consider U45C A140U A141C, for which the self-cleavage came out at 0.85.

For U45A A69G A94U U104C, the self-cleavage is 0.07.

With U47A A121G A136G, the self-cleavage stood at 2.02.

U46C A78G U87C: the self-cleavage was found to be 0.

Regarding U45C A117G A136G, the self-cleavage was found to be 2.3.

For U45C A50G A136G, the self-cleavage came out at 0.

With U46C A67G U119A, the self-cleavage turned out to be 0.56.

Regarding U47A U62C A77U, the self-cleavage was found to be 0.06.

For U46A U104G A124G, the self-cleavage is 0.57.

As for G44U U47A U87A U100A, the self-cleavage is 0.08.

For the variant U46C A79U U130C, the self-cleavage was 1.15.

U45A G55A C98G: the self-cleavage worked out at 0.05.

On to U47A A57G U62C U100A A140G, for which the self-cleavage was 0.

For U47A U62A A94G, the self-cleavage was 0.

On to U45C A138G A142G, for which the self-cleavage stood at 0.75.

On to U46C G48A U81C, for which the self-cleavage was determined as 0.98.

With U47A A92G A124G, the self-cleavage turned out to be 0.22.

For U45C G88A U130A U134C, the self-cleavage was found to be 0.05.

With U45C U102C C120A, the self-cleavage is 2.24.

For the variant U46C A78G C120U, the self-cleavage is 2.09.

For U45G C76U U108A, the self-cleavage came out at 1.91.

With U45C U47A C63U C90A A94G A138G, the self-cleavage was found to be 0.17.

U46C U52C A57U C63A C113U: the self-cleavage is 0.02.

On to U46C A121G G122U, for which the self-cleavage came to 2.02.

As to U45A U47C A50U U85C U91A, the self-cleavage came to 0.

Turning to U47A A50G U115A U134A A141G, the self-cleavage is 0.29.

As to U47A A67G A69G, the self-cleavage was 0.

U46C A69G A94G U104A C131A: the self-cleavage amounted to 0.

For the variant U47A U62C U81A A141G, the self-cleavage is 0.06.

With U46C A77U A78G U104C, the self-cleavage worked out at 0.

With U47A A79G A117G, the self-cleavage amounted to 0.51.

U45C A78G U85G U108C: the self-cleavage turned out to be 2.04.

On to U46A G114A A121G, for which the self-cleavage worked out at 2.3.

On to U45C A117G C128G, for which the self-cleavage is 0.96.

On to U45C U52A A107G U119A, for which the self-cleavage came to 1.64.

Take U45C U73C A141G: the self-cleavage worked out at 1.81.

As for U47A A50G U52A G105A, the self-cleavage was found to be 0.83.

In the case of U45A U87A C101A, the self-cleavage is 0.12.

Consider U45C A57U U73A U81A A142G, for which the self-cleavage was 0.06.

As for U47A A77U U143A, the self-cleavage stood at 1.32.

As for U45A A67C U73C, the self-cleavage stood at 0.09.

As to U45C U85A U115C A138U, the self-cleavage amounted to 0.12.

On to U46A A65C A77G, for which the self-cleavage worked out at 0.

U46C G53U A77G A78G U81C U134C: the self-cleavage stood at 0.84.

With U46A G89U A140G, the self-cleavage was 0.01.

Consider U46A U52C A57U G86U U96A, for which the self-cleavage worked out at 0.02.

Consider U46G C71U U115C U130C, for which the self-cleavage is 2.19.

U46C A50G C90A: the self-cleavage is 0.06.

As to U45C A78G A94G C128U, the self-cleavage was determined as 0.09.

As for U45C U96C A124U, the self-cleavage came to 0.38.

Regarding U45C A141G C146U, the self-cleavage stood at 0.9.

In the case of U45C U62C U143C, the self-cleavage was 0.15.

For the variant U47A U52G U73A U85A, the self-cleavage stood at 0.09.

For U46C A94G A117U A121U, the self-cleavage stood at 0.44.

Take U45C C95U U96C: the self-cleavage amounted to 0.12.

Consider U46A U47A U91C C101U, for which the self-cleavage worked out at 0.66.

Consider U47A A78G U104C U109A A129U, for which the self-cleavage worked out at 1.31.

With U46C C131U A141G, the self-cleavage amounted to 0.97.

Turning to U47A A65U A78U U81A U109A A140G, the self-cleavage stood at 0.12.

Turning to U46C C61A U100C U115C U132C, the self-cleavage came to 0.06.

Regarding U46C A69U A78G U85C, the self-cleavage stood at 0.09.

As to U46A A64U U81A A138G U143C, the self-cleavage was found to be 0.56.

With U46A U96A G122A A141G, the self-cleavage amounted to 0.05.

On to U46C A67G A69C U132C, for which the self-cleavage was 0.

As for U45G U46A U62C, the self-cleavage is 0.1.

For U45C G93A C113G U134C A141G, the self-cleavage is 0.04.

For U45C U62C U85C C111U, the self-cleavage was 0.06.

With U46C A94G A117C U130C A136G A142G, the self-cleavage came to 0.

With U46C U62C A67G A136U A142G U143A, the self-cleavage came to 0.13.

Regarding U46A A59G A69G G106A, the self-cleavage was determined as 0.

For the variant U45C A136G A138U, the self-cleavage was determined as 0.08.

Consider U47A U100C U119G A142G, for which the self-cleavage worked out at 2.17.

Turning to U46A U96A A141G, the self-cleavage came out at 0.09.
